# Test results taken from the BET-seq Pho4 binding data (Le et al. 2018).
# The other results are listed elsewhere or left out. The energies were worked out here from pooled read counts, against the library average; single values are noisy.
# Molecular target: T1, Pho4 (S. cerevisiae) (UniProt P07270)
# T1 sequence: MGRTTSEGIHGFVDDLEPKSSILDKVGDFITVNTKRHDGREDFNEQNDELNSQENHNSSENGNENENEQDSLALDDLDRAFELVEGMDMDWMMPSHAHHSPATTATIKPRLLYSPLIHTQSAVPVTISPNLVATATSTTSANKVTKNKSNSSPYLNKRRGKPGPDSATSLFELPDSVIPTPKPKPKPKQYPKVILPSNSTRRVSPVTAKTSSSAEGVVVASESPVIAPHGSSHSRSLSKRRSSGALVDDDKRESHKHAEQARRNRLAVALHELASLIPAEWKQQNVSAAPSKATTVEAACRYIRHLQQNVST
# Assay: relative binding free energy (BET-seq); higher = weaker binding
# Conditions: reference: library average
row,Sequence,relative binding free energy [kcal/mol]
1,TTGCCCACGTGGGGGG,-0.31
2,ATGAGCACGTGGAATG,-0.12
3,AAGGTCACGTGGTGTA,-0.03
4,ATGTTCACGTGACCGG,0.26
5,CTCGTCACGTGGGTTG,0.07
6,AAAGTCACGTGGGGGA,-0.05
7,AACGACACGTGGGGGG,0
8,TGTAGCACGTGGCGCG,-0.24
9,GTGTTCACGTGTAAAA,0.26
10,TGTATCACGTGTTCGT,0.03
11,TTATACACGTGTGAAG,-0.05
12,AGTCGCACGTGAGTTA,0.18
13,ATTATCACGTGGTTGA,0.06
14,AGCGCCACGTGGGTAG,-0.2
15,ATAAGCACGTGTAAAT,0.24
16,TTTTCCACGTGATGTT,0.27
17,TTGCGCACGTGGTATG,-0.29
18,TTTAACACGTGGCGGT,-0.06
19,GGTTGCACGTGGATCT,-0.02
20,ATTTGCACGTGTGAGG,0.17
21,ATTTTCACGTGTGTGC,0.3

row,Sequence,relative binding free energy [kcal/mol]
1,CGGATCACGTGGTATG,0.02
2,CAGGGCACGTGAATGT,0.08
3,AAAAACACGTGTAGGG,0.2
4,TATTCCACGTGGGGTT,0
5,GATGCCACGTGATTGG,0.22
6,ATGCGCACGTGGGGTG,-0.33
7,AAGATCACGTGGGGTT,0.1
8,AGTTTCACGTGATGAA,0.2
9,ATGCGCACGTGAGGCT,0.05
10,TATCGCACGTGAAGGG,0.35
11,TGTAGCACGTGATCTG,0.05
12,TTTCACACGTGGTGTG,-0.04
13,TTATACACGTGTGGGC,0.12
14,ATTTGCACGTGAAGGG,0.26
15,GTGTGCACGTGTCTGT,-0.03
16,TGTGTCACGTGTCGTG,0.1
17,GCGCGCACGTGTGTGT,-0.08
18,TGCGGCACGTGGCTGG,-0.11
19,CAAGTCACGTGTTGAG,0.16
20,TCAGTCACGTGTGTTT,0.13
21,TTGAGCACGTGCGGTC,-0.11

row,Sequence,relative binding free energy [kcal/mol]
1,GGTGGCACGTGAGGAC,0.23
2,TCGAGCACGTGGGGTC,-0.09
3,AAGGTCACGTGTTTCG,0.07
4,TCGCGCACGTGGTAGG,-0.31
5,TGTGACACGTGGTTGT,-0.02
6,CGAGGCACGTGGCGGG,-0.05
7,CTAGCCACGTGGTTGG,-0.09
8,TGAGGCACGTGAGATT,0.16
9,TTAATCACGTGCTTGT,0.12
10,GTTTACACGTGGATAA,0.24
11,GTGAGCACGTGGGCGT,-0.14
12,ATAGTCACGTGTTAGT,0.17
13,CTTTTCACGTGGCTTA,0.33
14,GTCTCCACGTGGTGTG,0.11
15,TTGTGCACGTGAAAGT,0.24
16,AGTTACACGTGTAAGA,0.15
17,CGTGGCACGTGAGTGT,0.13
18,TCAGACACGTGGGTGG,-0.15
19,TCTGTCACGTGTCTTG,0.16
20,TTAGGCACGTGTTAAA,-0.14
21,GTCGACACGTGAGGTA,0.27
